Data published in publication PMC4336329 (PLoS ONE, 2015).
The campaign covered roughly 310,000 compounds. About 2,200 (0.71%) showed an effect of 50% or more. Effects have a minus sign here. The list shows a part of the results.

These molecules were tested against human ether-à-go-go-related gene (hERG) potassium channel (human, UniProt Q12809) (assay: primary screen, population patch clamp on CHO cells stably expressing hERG).
human ether-à-go-go-related gene (hERG) potassium channel, sequence (Q12809 whole entry, looked up): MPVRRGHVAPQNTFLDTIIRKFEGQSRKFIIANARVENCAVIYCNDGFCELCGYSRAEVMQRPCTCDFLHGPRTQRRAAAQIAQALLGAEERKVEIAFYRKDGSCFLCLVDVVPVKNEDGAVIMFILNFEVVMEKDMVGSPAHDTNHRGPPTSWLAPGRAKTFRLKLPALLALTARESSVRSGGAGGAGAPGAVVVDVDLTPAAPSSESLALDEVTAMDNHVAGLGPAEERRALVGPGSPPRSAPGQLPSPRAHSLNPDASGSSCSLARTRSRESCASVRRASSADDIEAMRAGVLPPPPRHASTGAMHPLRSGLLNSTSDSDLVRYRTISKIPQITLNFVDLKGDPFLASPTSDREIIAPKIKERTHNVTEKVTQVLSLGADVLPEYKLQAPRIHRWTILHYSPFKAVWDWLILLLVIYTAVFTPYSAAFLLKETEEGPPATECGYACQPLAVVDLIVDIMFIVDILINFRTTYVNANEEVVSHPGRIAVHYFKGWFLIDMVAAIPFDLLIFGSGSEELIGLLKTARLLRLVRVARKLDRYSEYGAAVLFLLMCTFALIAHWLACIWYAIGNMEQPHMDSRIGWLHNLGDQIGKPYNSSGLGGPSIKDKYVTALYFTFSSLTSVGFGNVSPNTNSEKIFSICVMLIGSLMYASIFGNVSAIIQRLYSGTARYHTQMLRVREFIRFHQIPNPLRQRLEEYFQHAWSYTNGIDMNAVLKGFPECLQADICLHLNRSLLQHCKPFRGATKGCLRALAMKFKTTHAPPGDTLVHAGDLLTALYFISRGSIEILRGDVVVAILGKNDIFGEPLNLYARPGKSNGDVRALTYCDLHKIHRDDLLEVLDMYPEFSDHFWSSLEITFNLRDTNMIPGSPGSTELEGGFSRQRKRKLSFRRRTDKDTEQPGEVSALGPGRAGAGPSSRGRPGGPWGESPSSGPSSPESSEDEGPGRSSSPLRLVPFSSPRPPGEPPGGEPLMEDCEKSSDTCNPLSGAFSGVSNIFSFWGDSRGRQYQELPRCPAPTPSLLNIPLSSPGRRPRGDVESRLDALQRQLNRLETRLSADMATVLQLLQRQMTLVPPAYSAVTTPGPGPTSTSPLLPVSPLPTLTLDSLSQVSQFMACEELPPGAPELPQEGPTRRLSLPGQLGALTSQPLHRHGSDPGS
With `CCOC(=O)CNC(=O)c1cn(CC(C)C)c(=O)c2cc(OC)c(OC)cc12` the “hERG current change (%, negative = inhibition) at 1uM” value was -2.37%.
With `CC(C)N(Cc1nc(-c2ccc(Cl)cc2)no1)C(=O)C12CC3CC(CC(C3)C1)C2` the “hERG current change (%, negative = inhibition) at 1uM” value was 10.5%.
In the case of `COc1ccc(C)cc1NC(=O)C1CCCN(S(=O)(=O)c2ccc3c(c2)CCCN3C(C)=O)C1` (stereo not drawn), the “hERG current change (%, negative = inhibition) at 1uM” value is reported as 10%.
For `CCOC(=O)C(NC(=O)c1ccccc1)(Nc1cc(C)on1)C(F)(F)F` (stereo not drawn), the “hERG current change (%, negative = inhibition) at 1uM” value was 6.71%.
For `C(=N\Nc1nc(N2CCOCC2)nc(N2CCOCC2)n1)/c1ccncc1`, the “hERG current change (%, negative = inhibition) at 1uM” value was 13.2%.
In the case of `Cc1ccc(OCC(=O)NNC(=S)NC(=O)C2CCCCC2)c(C)c1`, the “hERG current change (%, negative = inhibition) at 1uM” value is reported as 0.991%.
`O=C1C(=O)N(c2ccccn2)C(c2cccc([N+](=O)[O-])c2)/C1=C(/O)c1ccc(Br)cc1` (stereo not drawn) was tested, and the “hERG current change (%, negative = inhibition) at 1uM” value was 14%.
In the case of `Cc1ccc2[nH]c(=O)c(CN(CCCN(C)C)C(=O)Nc3ccc(Cl)cc3)cc2c1`, the “hERG current change (%, negative = inhibition) at 1uM” value is reported as -62.7%.
With `COC(=O)CC1C(=O)NCCN1C(=S)Nc1ccccc1Cl` (stereo not drawn) the “hERG current change (%, negative = inhibition) at 1uM” value was 13%.
`O=C(CN1C(=O)NC2(CCCCC2)C1=O)Nc1cccc(S(=O)(=O)N2CCCC2)c1` was tested, and the “hERG current change (%, negative = inhibition) at 1uM” value was -1.64%.
For `Cc1nc(SCC(=O)Nc2ccc(CN3CCCC3)cc2)c2c(C)c(C)sc2n1`, the “hERG current change (%, negative = inhibition) at 1uM” value was -2.17%.
`C/C(=N\OCC(=O)Nc1ccccc1Br)c1cccs1` was tested, and the “hERG current change (%, negative = inhibition) at 1uM” value was 10.7%.
In the case of `Cc1cc(-c2ccc(Cl)s2)n[nH]1`, the “hERG current change (%, negative = inhibition) at 1uM” value is reported as 14%.
With `Cc1ccc(CNS(=O)(=O)c2ccc3c(c2)NC(=O)CO3)cc1` the “hERG current change (%, negative = inhibition) at 1uM” value was 5.26%.
For `CCOc1ccc(N(CC(=O)NCc2cccnc2)S(=O)(=O)c2ccc(F)cc2)cc1`, the “hERG current change (%, negative = inhibition) at 1uM” value was 7.16%.
For `N#CC(CCN1CCOCC1)(c1ccccc1)c1ccccc1`, the “hERG current change (%, negative = inhibition) at 1uM” value was 5.65%.
For `O=C(O)CCC(=O)N1N=C(c2cccs2)CC1c1ccc(Br)cc1` (stereo not drawn), the “hERG current change (%, negative = inhibition) at 1uM” value was 9.88%.
For `COc1ccc(Cc2nnc(SCC(=O)N3CCCC3)o2)cc1`, the “hERG current change (%, negative = inhibition) at 1uM” value was 12.9%.
In the case of `Cc1nc(N/N=C/c2ccccn2)sc1C`, the “hERG current change (%, negative = inhibition) at 1uM” value is reported as 21.1%.
`COCCCN=C(c1ccco1)n1c(=S)nc(-c2ccco2)n(CCCOC)c1=S` was tested, and the “hERG current change (%, negative = inhibition) at 1uM” value was -7.66%.
With `CCN(CC)S(=O)(=O)c1cc([N+](=O)[O-])ccc1NNC(=O)Nc1ccccc1OC` the “hERG current change (%, negative = inhibition) at 1uM” value was 5.04%.
`CC12CCC(C(=O)N3CCCc4ccccc43)(OC1=O)C2(C)C` (stereo not drawn) was tested, and the “hERG current change (%, negative = inhibition) at 1uM” value was 14.1%.
For `Cc1ccc(C(=O)Nc2nc3ccc(S(C)(=O)=O)cc3s2)s1`, the “hERG current change (%, negative = inhibition) at 1uM” value was 10.5%.
In the case of `Cc1nc2c(Cl)cc(Cl)cc2[nH]1`, the “hERG current change (%, negative = inhibition) at 1uM” value is reported as 5.13%.
With `Cc1ccc(S(=O)(=O)N2CCCC2C(=O)Nc2cc(C)on2)cc1` (stereo not drawn) the “hERG current change (%, negative = inhibition) at 1uM” value was 11.4%.
For `COc1cccc(C(=O)COc2ccccc2N2C(=O)C3C4C=CC(C4)C3C2=O)c1` (stereo not drawn), the “hERG current change (%, negative = inhibition) at 1uM” value was 0.0618%.
In the case of `O=C(/C=C/c1cccc(Cl)c1)NCc1cccs1`, the “hERG current change (%, negative = inhibition) at 1uM” value is reported as 1.58%.
`Cc1cccc2cc(CN(CC3CCCO3)C(c3nnnn3Cc3ccco3)C(C)C)c(=O)[nH]c12` (stereo not drawn) was tested, and the “hERG current change (%, negative = inhibition) at 1uM” value was 7.31%.
In the case of `Cc1ccccc1CNc1nnnn1C`, the “hERG current change (%, negative = inhibition) at 1uM” value is reported as 11.5%.
For `O=C1CN=C(c2ccccc2)c2c(sc3c2CCCC3)N1`, the “hERG current change (%, negative = inhibition) at 1uM” value was 5.05%.
`COC(=O)N1CC=CC1(C)C(=O)NCc1cc(F)cc(C(F)(F)F)c1` (stereo not drawn) was tested, and the “hERG current change (%, negative = inhibition) at 1uM” value was 11.4%.
For `CC(C)c1ccc(/C=C2\C(=N)N3N=C(CC(=O)N4CCCCC4)SC3=NC2=O)cc1`, the “hERG current change (%, negative = inhibition) at 1uM” value was 21.5%.
`OC(COc1cccc2ccccc12)CN1CCN(c2ccccc2)CC1` (stereo not drawn) was tested, and the “hERG current change (%, negative = inhibition) at 1uM” value was 7.19%.
In the case of `CN(C)C/C=C(\c1ccc(Br)cc1)c1cccnc1.Cl.O`, the “hERG current change (%, negative = inhibition) at 1uM” value is reported as -35.3%.
With `CN1CCN(NC(=O)CC(C)(C)C)CC1` the “hERG current change (%, negative = inhibition) at 1uM” value was 1.81%.
For `O=C(O)c1c(-n2cccc2)sc2c1CCCC2`, the “hERG current change (%, negative = inhibition) at 1uM” value was 11.4%.
With `COC(=O)C1=C(O)CSC1=Nc1ccccc1` the “hERG current change (%, negative = inhibition) at 1uM” value was -9.82%.
With `O=C(c1ccccc1)c1nn(-c2ccc(Cl)cc2)cc1C(=O)c1cc2ccccc2oc1=O` the “hERG current change (%, negative = inhibition) at 1uM” value was 6.34%.
In the case of `CC1(OC(=O)C2CCCC2)C(=O)C=C2C=C(C3CC3)OC=C2C1=O` (stereo not drawn), the “hERG current change (%, negative = inhibition) at 1uM” value is reported as 4.57%.
For `Cc1noc(C)c1COc1cccc(C(=O)OC(C)C(=O)Nc2ccc3c(c2)OCO3)c1` (stereo not drawn), the “hERG current change (%, negative = inhibition) at 1uM” value was -15.9%.
With `CCOc1ccc(S(=O)(=O)Nc2ccc(Cl)cn2)c(C)c1C` the “hERG current change (%, negative = inhibition) at 1uM” value was 7.79%.
With `CCOC(=O)C1CCCN(C(=O)/C=C/c2cccc([N+](=O)[O-])c2)C1` (stereo not drawn) the “hERG current change (%, negative = inhibition) at 1uM” value was -14.5%.
With `O=C(CCNC(=O)C1CCN(S(=O)(=O)c2ccccc2)CC1)NCc1ccccn1` the “hERG current change (%, negative = inhibition) at 1uM” value was 14.3%.
`O=c1c(-c2cnn(-c3ccccc3)c2)coc2cc(O)ccc12` was tested, and the “hERG current change (%, negative = inhibition) at 1uM” value was 12.5%.
With `Cn1cc(C(=O)N/N=C/c2ccc([N+](=O)[O-])cc2)c2ccccc21` the “hERG current change (%, negative = inhibition) at 1uM” value was 9.99%.
`O=C(CN1CC(c2ccccc2)CC1=O)Nc1cccc(F)c1` (stereo not drawn) was tested, and the “hERG current change (%, negative = inhibition) at 1uM” value was 3.88%.
`COC(=O)c1cc(OC)c(OC)cc1NC(=S)N1CCN(c2ccccn2)CC1` was tested, and the “hERG current change (%, negative = inhibition) at 1uM” value was 0.439%.
With `COc1ccccc1CNC(=O)COC(=O)CCN=C1NS(=O)(=O)c2ccccc21` the “hERG current change (%, negative = inhibition) at 1uM” value was 0.349%.
`CC(C)CCNC(=O)C1CCCN1C(=O)NC1CCCCC1` (stereo not drawn) was tested, and the “hERG current change (%, negative = inhibition) at 1uM” value was 13.9%.
In the case of `COC(=O)c1ccc(NC(=S)N2CCN(Cc3ccccc3)CC2)cc1`, the “hERG current change (%, negative = inhibition) at 1uM” value is reported as 6.61%.
With `CCc1nn2c(N)c(/C=C3\C=Nc4ccccc43)c(=O)nc2s1` the “hERG current change (%, negative = inhibition) at 1uM” value was 12.7%.
In the case of `O=C(N/N=C/c1cccnc1)c1cc(-c2ccc(Cl)cc2)nc2ccccc12`, the “hERG current change (%, negative = inhibition) at 1uM” value is reported as 11.1%.
`O=C(OCn1nnc2ccccc2c1=O)C1CCCCC1` was tested, and the “hERG current change (%, negative = inhibition) at 1uM” value was 6.6%.
For `CCN(CC)C(=O)COc1cccc2ccccc12`, the “hERG current change (%, negative = inhibition) at 1uM” value was 15.7%.
In the case of `Cc1[nH]nc(-c2ccc(O)c(C)c2O)c1Oc1ccccc1`, the “hERG current change (%, negative = inhibition) at 1uM” value is reported as -5.33%.
In the case of `CC(C)CCN1C(=O)c2ccc(C(=O)Nc3ccc(Br)cc3C(=O)O)cc2C1=O`, the “hERG current change (%, negative = inhibition) at 1uM” value is reported as 21.6%.
`CCN(C(=S)NC(=O)C1CC1)c1ccccc1` was tested, and the “hERG current change (%, negative = inhibition) at 1uM” value was 10.4%.
